Inconclusive results, whose numbers are uncertain, are shown with a selection of clear calls. Where the call is inconclusive, the potency comes from a doubtful curve fit. Active and inactive are the calls of the source. The call rests on the fitted dose curve; in most records, active means well fitted inhibition curve with a large enough effect; inconclusive means small, poorly fitted or top-dose-only effect; inactive means flat fitted curve, though single readings scatter.
Assay: BET inhibitor-based combinations targeting novel dependencies in MECOM-rearranged (r) AML: AML-194 cell line (AID 2202237; further: nearly all actives have a fitted effect of over 40% in size;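 on viability (% of control): plate controls were vehicle wells for no effect and wells without cells for full effect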)
Conditions: AML-194 (MECOM-r AML) viability, CellTiter-Glo, 48 h; series mostly up to 46 µM
Outline: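 Each compound was tested at eleven concentrations on cells seeded at 500/well. After two days' incubation, ATP-based luminescence reported viability; responses relative to DMSO and blank wells yielded AUC and cell-line-centred Z-AUC.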
Potency means the concentration at half of the fitted maximal effect; tags describe the fitted curve by direction and shape.

Row | Compound | Potency | viability (% of control)
1 | COc1ccc(F)c(F)c1C(=O)c1cnc(NC2CCN(S(C)(=O)=O)CC2)nc1N | active: 2.09 µM | –
2 | O=C(Nc1ccc2[nH]nc(-c3ccncc3)c2c1)[C@@H]1CCN(CC(=O)N2CCN(c3ccc(-c4ncccn4)cc3)CC2)C1 | inconclusive: 3.32 µM [inhibitor, partial curve] | –
3 | COc1ccc(-c2ccc3ncc4c(c3c2)n(-c2ccc(N3CCNCC3)c(C(F)(F)F)c2)c(=O)n4C)cn1 | active: 0.118 µM | –
4 | CC(C)CC(=O)Nc1n[nH]c2c1CN(C(=O)C1CCN(C)CC1)C2(C)C | active: 5.9 µM | –
5 | NCC1CCN(c2nccc(-c3ccc4ccccc4c3)n2)CC1 | active: 2.95 µM | –
6 | Cn1cc(C2=C(c3c4n(c5ccccc35)CCC(CN)C4)C(=O)NC2=O)c2ccccc21 (stereo not drawn) | – | inactive: 98.9% [at 8.46 µM]
7 | NC(=O)c1cnc(N[C@@H]2CCCC[C@@H]2N)nc1Nc1cccc(-n2nccn2)c1 | active: 18.6 µM | –
8 | CCOC(=O)CCNc1cc(N2CCc3ccccc3CC2)nc(-c2ccccn2)n1 | active: 2.95 µM | –
9 | CN1c2ccccc2C(=O)N2CCc3c([nH]c4ccccc34)C21 (stereo not drawn) | active: 1.32 µM | –
10 | Cc1ccc(C(N)=O)cc1Nc1nccc(-c2cn(C(C)C)c3cnccc23)n1 | active: 8.33 µM | –
11 | O=c1[nH]c(=O)n([C@H]2C[C@H](O)[C@@H](CO)O2)cc1F | inconclusive: 0.934 µM [inhibitor, full curve] | –
12 | COc1ccc(-c2cc3c(C)nc(N)nc3n(C3CCC(OCCO)CC3)c2=O)cn1 (stereo not drawn) | active: 0.209 µM | –
13 | Oc1ccc(-c2ccc(-c3cc(Nc4cccc(CNC5CC5)c4)n[nH]3)cc2)c(O)c1 | active: 3.72 µM | –

From PubChem BioAssay (NCATS)
